{"source": "PubChem BioAssay AID686978", "about": "(National Center for Advancing Translational Sciences (NCATS), 2013)", "note": "Among all 420,000 compounds or so, about 64,000 (15%) were called active. The shares of active, inactive and inconclusive entries below differ from those in the screen. Calls come from the whole dose curve; as a rule, active = well fitted inhibition curve with a large enough effect; inconclusive = small, poorly fitted or top-dose-only effect; inactive = flat fitted curve, though single readings scatter. No potency is given beside an inconclusive call; the fits are too rough. % is set by controls: 0 for no effect and ±100 for the full control effect; potency is the fitted concentration of half-maximal effect; tags give direction and shape of the fitted curve.", "data": [{"assay": "qHTS for Inhibitors of human tyrosyl-DNA phosphodiesterase 1 (TDP1): qHTS in cells in absence of CPT; note: nearly all actives have a fitted effect of over 55% in size", "conditions": "DT40 Tdp1-/- hTDP1 cells, no CPT, ATP luminescence, 48 h; activity change, negative = growth inhibition: at 46.2 µM (top of the series)", "method_in_brief": "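Growth of hTDP1-complemented DT40 Tdp1-knockout cells is measured by ATP luminescence after at least 48 hr compound exposure at 37 °C, with DMSO substituting for the 20 nM CPT used in the parallel screen.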", "values": [{"smiles": "Brc1ccc(C2Nc3cccc4cccc(c34)N2)cc1", "Potency": "inactive"}, {"smiles": "CN1CCc2c(sc(/N=C/c3c[nH]c4ccccc34)c2C(N)=O)C1", "Potency": "active: 16.4 µM"}, {"smiles": "Cc1cccc(C(=O)Oc2ccccc2C(=O)N2CCOCC2)c1", "Potency": "inconclusive [inhibitor, partial curve]"}, {"smiles": "CCNC(=O)c1ccc(-n2nc(C(F)(F)F)c3c2CCCC3)cc1", "activity change, negative = growth inhibition": "inconclusive: -36% [inhibitor]"}, {"smiles": "COc1ccc(NC(=S)NC(=O)/C=C/c2ccccc2)cc1", "Potency": "inconclusive [inhibitor, single point]"}, {"smiles": "CCOc1ccc(CCNC(=O)c2nnn(CC(=O)Nc3ccc(C)cc3)c2N)cc1OCC", "Potency": "inactive"}, {"smiles": "CCN1CCN(C(c2ccc(F)cc2)c2sc3nc(-c4ccco4)nn3c2O)CC1", "note": "(stereo not given)", "Potency": "inconclusive [inhibitor, single point]"}, {"smiles": "COc1ccc(NC(=O)CSc2ncnc3c2cnn3Cc2ccccc2)cc1OC", "Potency": "inconclusive [inhibitor, single point]"}, {"smiles": "CCC(C)NC(=O)c1cnn(-c2cccc(F)c2)c1-n1cccc1", "note": "(stereo not given)", "Potency": "active: 16.4 µM"}, {"smiles": "CC(=O)n1cc(N(C(=O)CCl)c2ccc(Cl)cc2)c2ccccc21", "Potency": "active: 1.3 µM"}, {"smiles": "O=C(c1cccs1)N1CCN(Cc2ccncc2)CC1", "Potency": "inactive"}, {"smiles": "CCc1ccc2oc(-c3cc(NC(=O)COc4ccc(C)cc4)ccc3O)nc2c1", "Potency": "inconclusive [inhibitor, single point]"}, {"smiles": "O=C1Nc2cc(C(=O)NCCCN3CCOCC3)ccc2S/C1=C/c1cccc(Cl)c1", "Potency": "inconclusive [inhibitor, single point]"}, {"smiles": "CC(=O)N1CCCC1c1nc2ccccc2n1Cc1ccccc1F", "note": "(stereo not given)", "Potency": "inconclusive [inhibitor, partial curve]"}, {"smiles": "CCn1c(NCc2ccccn2)nc2c1c(=O)n(C)c(=O)n2C", "Potency": "inactive"}, {"smiles": "Cc1ccc2cccc(OCc3ccc(F)cc3)c2n1", "Potency": "inconclusive [inhibitor, single point]"}, {"smiles": "CCc1nc2c(OCc3ccc(F)cc3)cccn2c1N(C)C(=O)COc1ccccc1", "Potency": "inconclusive [inhibitor, single point]"}, {"smiles": "O=C(c1ccccn1)N(Cc1ccco1)C1(C(=O)NC2CCCCC2)CCCCC1", "Potency": "inconclusive [inhibitor, single point]"}, {"smiles": "COc1ccc(CC(=O)N(C)Cc2cccc(OC)c2OC)cc1S(=O)(=O)N1CCOCC1", "Potency": "inconclusive [inhibitor, single point]"}, {"smiles": "CCc1cc(=O)[nH]c(SCc2nc(-c3ccc(C(F)(F)F)cc3)no2)n1", "Potency": "active: 16.4 µM"}, {"smiles": "Cc1ccc(OCC(=O)Nc2nonc2-c2ccc(Br)cc2)cc1", "Potency": "inactive"}, {"smiles": "COc1ccc(N2CCN(C(c3ccc(F)cc3)c3sc4nc(-c5ccco5)nn4c3O)CC2)cc1", "note": "(stereo not given)", "Potency": "inconclusive [inhibitor, single point]"}, {"smiles": "O=C(O)c1cccc(NS(=O)(=O)c2ccc(Cl)c(C(=O)Nc3cccc([N+](=O)[O-])c3)c2)c1", "Potency": "inactive"}, {"smiles": "O=C(Nc1cccc2c1CCCC2)N1CCOc2ccc(Cl)cc21", "Potency": "inconclusive [inhibitor, single point]"}, {"smiles": "CC(C)OCCCNC(=O)CN1C(=O)c2ccccc2Sc2ncccc21", "Potency": "inactive"}, {"smiles": "CCN1CCN(C(=O)CCc2nnc3ccc(N4CCN(c5cccc(OC)c5)CC4)nn23)CC1", "Potency": "inactive"}, {"smiles": "Cc1ccccc1N=Cc1cc2c(cc1O)OC(N)=C(C#N)C2c1ccccc1", "note": "(stereo not given)", "Potency": "inconclusive [inhibitor, single point]"}, {"smiles": "Cc1ccc(NC(=O)COc2ccc(Cl)cc2Cl)cc1S(=O)(=O)N1CCOCC1", "Potency": "inconclusive [inhibitor, single point]"}, {"smiles": "Cc1cc(C(=O)NCC(=O)OCC(=O)N(C2CCCCC2)C2CCCCC2)ccc1[N+](=O)[O-]", "Potency": "inconclusive [inhibitor, partial curve, poor fit]"}, {"smiles": "CCN(CC)c1ccc(/C=N/NC(=O)CNC(=O)/C=C/c2ccco2)cc1", "Potency": "inconclusive [inhibitor, single point]"}, {"smiles": "CCCC(=O)Nc1ccc2nc(SCC(=O)N3CCOCC3)sc2c1", "Potency": "inconclusive [inhibitor, single point]"}, {"smiles": "CC(=O)Nc1ccc(SCC(=O)c2cc(C)ccc2C)cc1", "Potency": "inconclusive [inhibitor, single point]"}, {"smiles": "COc1cccc(S(=O)(=O)N(C)C[C@@H]2OCc3cnnn3CCCC(=O)N([C@@H](C)CO)C[C@@H]2C)c1", "Potency": "inactive"}, {"smiles": "NC(=O)/C(=N\\OC(=O)c1ccco1)c1nc(-c2ccc(Br)cc2)cs1", "Potency": "inconclusive [inhibitor, partial curve]"}, {"smiles": "CC(=O)Nc1ccc(NC(=O)C(Cc2ccccc2)NC(=O)C2CCCCC2)cc1", "note": "(stereo not given)", "Potency": "inactive"}, {"smiles": "CC(C)(C)OC(=O)NCCCC[C@H](NC(=O)c1nc[nH]c1C(=O)N1CCN(C(=O)OC(C)(C)C)CC1)C(=O)OC(C)(C)C", "Potency": "active: 23.1 µM"}, {"smiles": "COc1cccc2c(=O)n(CC(=O)N3CCC(C)CC3)ccc12", "Potency": "inactive"}, {"smiles": "N#CC1=C(N)Oc2cc(N)ccc2C1c1ccccc1Cl", "note": "(stereo not given)", "Potency": "inconclusive [inhibitor, single point]"}, {"smiles": "COc1cc(F)ccc1-c1cc(C(=O)NCc2ccc(C(F)(F)F)cc2)[nH]n1", "Potency": "inconclusive [inhibitor, single point]"}, {"smiles": "COc1cccc(N2CCN(CC(=O)NC3=Nc4ccccc4N=C(C)C3c3ccccc3)CC2)c1", "note": "(stereo not given)", "Potency": "inconclusive [inhibitor, single point]"}, {"smiles": "CN(C)c1ccc(/C=C/c2nc3ccccc3o2)cc1", "Potency": "inconclusive [inhibitor, single point]"}, {"smiles": "COc1ccc(/C=C/c2n[nH]c(=O)c(C#N)c2C)cc1", "Potency": "inconclusive [inhibitor, single point]"}, {"smiles": "COc1cc(NC(=O)CSc2ncnc3sc4c(c23)CCC(C)C4)c(C(=O)O)cc1OC", "note": "(stereo not given)", "Potency": "inactive"}, {"smiles": "Cc1ccc(SCc2ccc(C(=O)NCc3cccnc3)cc2)cc1", "Potency": "inconclusive [inhibitor, single point]"}, {"smiles": "Cc1cc(CSc2nc(C)cc(=O)[nH]2)c2ncccc2c1", "Potency": "inconclusive [inhibitor, single point]"}, {"smiles": "CN(C)C(=O)CSc1nnc(-c2ccc(F)cc2)c2ccccc12", "Potency": "inconclusive [inhibitor, single point]"}, {"smiles": "CCn1cc(C(=O)NCC2CCCO2)c(=O)c2cc(S(=O)(=O)N3CCCCC3)ccc21", "note": "(stereo not given)", "Potency": "inactive"}, {"smiles": "COc1ccc(C(=O)CSc2nccc(=O)[nH]2)cc1", "Potency": "inactive"}, {"smiles": "O=C(N/N=C/c1ccc(OC(=O)c2cccs2)cc1)c1ccccn1", "Potency": "inactive"}, {"smiles": "CCN1CCN(S(=O)(=O)c2ccc(Cl)c(C(=O)NC(C)c3ccccc3Cl)c2)CC1", "note": "(stereo not given)", "Potency": "inconclusive [inhibitor, single point]"}, {"smiles": "O=C(CNc1cc(S(=O)(=O)N2CCOCC2)ccc1NCC1CCCO1)Nc1ccc(F)c(F)c1", "note": "(stereo not given)", "Potency": "inactive"}, {"smiles": "CCc1ccc2c(c1)c(N=NC1=NC(=O)CS1)c(O)n2CC", "Potency": "inconclusive [inhibitor, partial curve]"}, {"smiles": "COc1cccc(-c2ccc(-c3noc(-c4cccs4)n3)c(OC)n2)c1", "Potency": "inconclusive [inhibitor, full curve, poor fit]"}, {"smiles": "CCC1Sc2ccc(S(=O)(=O)CCC(=O)NCc3ccco3)cc2NC1=O", "note": "(stereo not given)", "Potency": "inconclusive [inhibitor, single point]"}, {"smiles": "Cc1cc(N2CCN(C)CC2)nc(=S)[nH]1", "Potency": "inactive"}, {"smiles": "Cc1cc(C)n(Cc2ccc(Cl)c(Cl)c2)c(=O)c1S(=O)(=O)c1ccccc1", "Potency": "inconclusive [inhibitor, single point]"}, {"smiles": "C[C@]12CC[C@H](O)CC1=C[C@H](O)C1C2CC[C@@]2(C)C1CC[C@@]2(O)C#Cc1ccc(CN)cc1", "note": "(stereo not given in full)", "Potency": "inconclusive [inhibitor, single point]"}, {"smiles": "Cc1oc2ncnc(N3CCOCC3)c2c1C(=O)NCc1ccc(Cl)cc1", "Potency": "inactive"}, {"smiles": "CN(C)S(=O)(=O)c1ccc(NC(=S)NC(=O)c2cccs2)cc1", "Potency": "inconclusive [inhibitor, single point]"}, {"smiles": "Cc1ccc(N2C(=O)c3ccccc3C2C(=O)c2cc(C)ccc2O)cc1", "note": "(stereo not given)", "Potency": "inconclusive [inhibitor, single point]"}, {"smiles": "N#C/C(=C\\c1ccc(-c2cccc(Cl)c2)o1)C(=O)Nc1cccc(C(F)(F)F)c1", "Potency": "inconclusive [inhibitor, single point]"}, {"smiles": "Cc1ccccc1CSc1nnc(-c2ccccc2)c(=O)[nH]1", "Potency": "inconclusive [inhibitor, single point]"}, {"smiles": "O=C(CONS(=O)(=O)c1ccc(Cl)cc1)NCCNc1ncc(C(F)(F)F)cc1Cl", "Potency": "inconclusive [inhibitor, single point]"}, {"smiles": "COC(=O)[C@@H](CC(C)C)N(Cc1ccccc1)S(=O)(=O)N(Cc1ccccc1)[C@@H](CC(C)C)C(=O)OC", "Potency": "active: 11.2 µM"}, {"smiles": "COc1cc(OC)c(OC)cc1/C=C/c1nc2ccccc2o1", "Potency": "active: 12.6 µM"}, {"smiles": "O=C(CCC1CCCC1)Nc1ccc(C(=O)NCc2cccnc2)cc1", "Potency": "inconclusive [inhibitor, single point]"}, {"smiles": "C=CCOc1ccc(CN(C)CC(O)COc2ccc(CCC(C)=O)cc2)cc1", "note": "(stereo not given)", "Potency": "active: 16.4 µM"}, {"smiles": "CN1CCN(c2nc(Nc3ccccc3)nc(N)c2[N+](=O)[O-])CC1", "Potency": "inconclusive [inhibitor, single point]"}, {"smiles": "O=C(O)c1c(-c2ccccc2)c(-c2ccccc2)nc2ccccc12", "Potency": "inactive"}, {"smiles": "CCC1CN(CCNC(=O)C2CCCCN2C)Cc2cc(OC)ccc2O1", "note": "(stereo not given)", "Potency": "inactive"}]}]}
